# Reference: PubChem BioAssay AID2546 (National Center for Advancing Translational Sciences (NCATS), 2010)
# The campaign covered roughly 310,000 compounds. About 11,000 (3.5%) were called active. Inconclusive means that the source gave no clear call. Such entries were picked first, then a sample of the others. The call rests on the fitted dose curve; in most records, active means well fitted inhibition curve with a large enough effect; inconclusive means small, poorly fitted or top-dose-only effect, or effect the other way; inactive means flat fitted curve, though single readings scatter. Potencies of inconclusive entries are left out as doubtful fits.
# Test: VP16 counterscreen qHTS for inhibitors of ROR gamma transcriptional activity;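 further: Gal4-VP16 expression switched on by copper sulfate through the metallothionein promoter; nearly all actives have a fitted effect of over 50% in size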
# Settings: Drosophila S2 Gal4-VP16 UAS-luciferase, luminescence, 20 h; series mostly up to 53.6 µM
# Potency means the concentration at half of the fitted maximal effect; tags describe the fitted curve by direction and shape.
row,Compound,Potency
1,O=C(Cc1ccccc1)N/N=C/c1ccc([N+](=O)[O-])s1,"inconclusive [inhibitor, single point]"
2,COc1cccc(C(=O)NCCNC(=O)c2ccc(C)nc2)c1,inactive
3,CC1(C)S/C(=N/N=C/c2ccco2)NC1=O,active: 7.94 µM
4,COc1ccc(C(=O)Nc2ccc(OCc3ccccc3)cc2)cc1[N+](=O)[O-],"inconclusive [inhibitor, single point]"
5,O=C(NNc1nc(-c2ccccc2)cs1)c1ccco1,active: 5.01 µM
6,COc1ccc(CNCC(O)(c2ccc(Cl)cc2)c2ccc(Cl)cc2)cc1OC,"inconclusive [inhibitor, single point]"
7,O=C(CN1C2=NCCCN2c2ccccc21)c1ccc(Cl)cc1Cl,inactive
8,O=S(=O)(c1ccc(Cl)c(NC(=S)N/N=C/c2ccc(O)cc2)c1)N1CCOCC1,active: 6.31 µM
9,O=C(Nc1ccccc1C(=O)N/N=C/c1ccc(F)cc1)c1ccccc1Br,"inconclusive [inhibitor, single point]"
10,Cn1c(C(=O)N2CCCC(C(=O)NCCCSC3CCCCC3)C2)cc2sccc21 (configuration not stated),"inconclusive [inhibitor, single point]"
11,COCCn1c(C)cc(C(=O)COC(=O)c2cccc(O)c2)c1C,active: 0.631 µM
12,O=C(CSc1cccc[n+]1[O-])c1cc2ccccc2o1,"inconclusive [inhibitor, single point]"
13,CCOC(=O)c1c(-c2ccc(F)cc2)csc1NC(=O)CN1C(=O)NC2(CCCCC2C)C1=O (configuration not stated),"inconclusive [inhibitor, single point]"
14,CCOc1ccc(-n2c(C)cc(/C=N/NC(=O)C(N)=O)c2C)cc1,inactive
15,O=C(CC(Nc1ccc(F)cc1)C(=O)O)c1ccccc1 (configuration not stated),"inconclusive [inhibitor, single point]"
16,O=C(Nc1nccs1)c1ccc(COc2ccccc2Cl)o1,"inconclusive [inhibitor, single point]"
17,C=CCSc1n[nH]c(-c2ccccc2)n1,"inconclusive [inhibitor, single point]"
18,O=C(Nc1ccc(Cl)cc1)N1N=CCC1c1ccccc1 (configuration not stated),"inconclusive [activator, single point]"
19,O=C(Nc1ccccc1)c1cn2ccccc2n1,active: 2.82 µM
20,O=C1c2ccccc2C(=O)C1c1nccc2ccccc12,"inconclusive [inhibitor, full curve]"
21,Cc1cc2n(n1)SC(Nc1cc(Cl)ccc1Cl)N2 (configuration not stated),active: 0.562 µM
22,O=C(Nc1nc2ccccc2[nH]1)c1ccccc1[N+](=O)[O-],active: 22.4 µM
23,O=C(N/N=C/C1=C(N2CCOCC2)C(=C\c2ccccc2)/CC1)Nc1ccccc1,inactive
24,COc1ccc(-c2[nH]n(-c3ccc([N+](=O)[O-])cc3)c(=O)c2C=NCCN2CCNCC2)cc1,"inconclusive [inhibitor, partial curve]"

row,Compound,Potency
1,CCn1cc(C(=O)NCCCN2CCC(C)CC2)c(=O)c2cc(S(=O)(=O)N(C)C3CCCCC3)ccc21,inactive
2,Oc1ccc(O)c2c1C1c3ccccc3C2c2ccccc21,active: 20 µM
3,O=C(CCSCc1cccc(Cl)c1)NCCC1=CCCCC1,inactive
4,Cc1ccsc1/C=N/NC(=O)c1nnn(-c2nonc2N)c1-c1ccc2c(c1)OCO2,"inconclusive [inhibitor, single point]"
5,CCOc1ccc(OCC)c(NC(=O)c2nnn(CC(=O)Nc3cc(C)cc(C)c3)c2N)c1,"inconclusive [inhibitor, single point]"
6,CCOC(=O)c1ccc(Nc2nc(N)c3cc(OC)c(OC)cc3n2)cc1,"inconclusive [inhibitor, single point]"
7,CCOC(=O)/C(C#N)=C/c1cc(C)n(-c2ccccc2)c1C,"inconclusive [inhibitor, single point]"
8,COc1ccc(Cn2c(=S)[nH]c3cc(OC)c(OC)cc3c2=O)cc1,"inconclusive [inhibitor, partial curve]"
9,CC(C)OC(=O)CSc1nnc(-c2ccc(C(C)(C)C)cc2)n1N,"inconclusive [inhibitor, single point]"
10,O=C(CNc1ccc2c(c1)OCO2)N/N=C\c1cn(Cc2ccc(F)cc2)c2ccccc12,active: 10 µM
11,C=CCC(CC=C)(NC(=O)c1ccccc1)c1ccccc1,active: 17.8 µM
12,COc1ccc(C2NC(=S)N(c3ccccc3)C(C)=C2C(=O)Nc2ccccc2)cc1 (configuration not stated),"inconclusive [inhibitor, single point]"
13,O=C(O)/C=C/C(=O)N1CCN(C(=O)/C=C/C(=O)O)CC1,"inconclusive [activator, single point]"
14,Cc1cc(N/N=C/c2ccc(O)cc2O)nc(-n2nc(C)cc2C)n1,active: 0.708 µM
15,C(=C\c1nc2ccccc2[nH]1)/c1ccccc1,active: 8.91 µM
16,COc1cccc(C2CC(c3cccs3)=NN2C(=O)CSc2nc3c(cnn3-c3ccc(F)cc3)c(=O)[nH]2)c1OC (configuration not stated),"inconclusive [inhibitor, partial curve]"
17,O=C(CSc1nnnn1C1CC2CCC1C2)Nc1ccnc2ccccc12 (configuration not stated),active: 0.0022 µM
18,CCOc1ccc(S(=O)(=O)NCCC(=O)Nc2cccc(C(=O)OC)c2)cc1,"inconclusive [activator, partial curve, poor fit]"
19,CCOC(=O)N1CCN(C(=O)c2ccc3nc(N4CCC(C)CC4)sc3c2)CC1,"inconclusive [inhibitor, single point]"
20,CCc1nc(C)c(C(=O)N2CCCC(C(=O)Nc3cccc(-c4cccc(C)c4)c3)C2)o1 (configuration not stated),"inconclusive [inhibitor, single point]"
21,CC(=O)N1c2ccc(S(=O)(=O)NCCC(=O)Nc3ccc(C)cn3)cc2CC1C (configuration not stated),inactive
22,Cc1ccccc1N(CC(=O)NC(C)(C)C)C(=O)CCC(=O)Nc1nccs1,inactive
23,O=C(CCC(=O)Nc1ccccc1Cl)NNC(=O)Nc1cccc([N+](=O)[O-])c1,inactive
